Measurements published in the supplement of paper PMC11417369.
± gives the standard deviation of the averaged measurements. The list shows a part of the results.

tested on: PfAP2-I AP2 domain 3 (GST-tagged); assay: gcPBM binding intensity (ln(normalized median fluorescence intensity)); higher = stronger DNA binding
How it was run: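 GST-tagged P. falciparum DNA-binding domains produced in E. coli were incubated for 1 h on an Agilent 4 × 180k array of primer-extended double-stranded 36-bp intergenic genomic probes with negative controls. Binding intensity is the highest Masliner-normalised natural-log median intensity across replicate spots of either probe orientation, with bound protein detected by Alexa488 anti-GST antibody at 488 nm.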

Sequence | gcPBM binding intensity (ln)
TTTAATATGAATTTATGTACATATATATATATATAT [XGTACX_site6337] | 9.53 ± 0.54
TATATTAAAAAAAAATGTACATATATATAATATATA [XGTACX_site1935] | 7.72 ± 0.35
TTAAAGAATATTTTCACACATAAAAATTTTAATTTA [CACACA_site4290] | 7.32 ± 0.5
TTATAAAACACAAAATGTACAAAAAATTATAATTAA [XGTACX_site6859] | 7.91 ± 0.57
AATATTATTATCTTACCACACACAATCTACGAAAAG [CACACA_site8006] | 8.07 ± 0.28
TATGTCTTGTTGTAAAATATTTATTAACAAATTGGC [CACACA_negctrl_site1452] | 7.74 ± 0.39
TATATATATATAAGTGCACACTGAACCAAGAAAATT [CACACA_site5637] | 10.5 ± 0.16
TTTTTTTTTTTTTAAATAATCATACATGTGAAATTG [GTGCAC_negctrl_site328] | 7.96 ± 0.71
TTAATAAAAATATATCCACACACATATATATATATG [CACACA_site8091] | 7.8 ± 0.45
ATCATTTATTTTTTAAAAGTATATATATATATATAT [CACACA_negctrl_site220] | 9.38 ± 0.4
TTTTGACATTAACTTAAAAAATAAATAATTATAAAA [XGTACX_negctrl_site552] | 7.78 ± 0.071
ACATATTATAACATATGTACATATATATATATATAA [XGTACX_site5567] | 7.98 ± 0.41
AAATATAAGTTTTATTGTACATTATATAGCATATTT [XGTACX_site6618] | 7.49 ± 0.41
TATCATATAAAACATGCACACATATGTACTCTTATA [CACACA_site9249] | 8.35 ± 0.55
CGTTCTATTTAGATATGTACTTAAATATATGATCAT [XGTACX_site2936] | 7.61 ± 0.39
AAAAAATAAGATTGTACACACATAAATTCTTTGTCA [CACACA_site2089] | 7.66 ± 0.47
AATGTGTTCATATATGCACACGCATATATATTATTG [CACACA_site9274] | 9.07 ± 0.2
TATATAAATGGACACACACACACCTTATAATTATTA [CACACA_site6093] | 7.95 ± 0.35
TTTATAAATTGACACACACACATGTGAACATAAAAA [CACACA_site6978] | 7.91 ± 0.55
CCTAATTTTTTTAGTTGTACTTTTTTTTTTTTTTAT [XGTACX_site7948] | 7.79 ± 0.5
GCCTATATGTTTAGTTGTACTCCTAATATTATTTGT [XGTACX_site6060] | 8.1 ± 0.53
CAAATTATTTCGAGGTGTACTTTTTTATATTATATT [XGTACX_site8309] | 7.82 ± 0.55
ATACGTATATAATATACATGCATATATAGCACATAC [TGCATGCA_site376] | 9.11 ± 0.66
ATAAAAAAAAAAAAAAATGAAGCATCACCGTGTAAT [XGTACX_negctrl_site288] | 7.65 ± 0.65
